Results from PMC4336329 (PLoS ONE, 2015).
The campaign covered roughly 310,000 compounds. About 14,000 (4.5%) showed an effect of 50% or more. Effects have a minus sign here. The list shows a part of the results.

The compounds below were run against human ether-à-go-go-related gene (hERG) potassium channel (human, UniProt Q12809) (assay: primary screen, population patch clamp on CHO cells stably expressing hERG).
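Also: peak tail current of the secondary pulse compared with the same well before compound.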

human ether-à-go-go-related gene (hERG) potassium channel, sequence (Q12809 whole entry, looked up): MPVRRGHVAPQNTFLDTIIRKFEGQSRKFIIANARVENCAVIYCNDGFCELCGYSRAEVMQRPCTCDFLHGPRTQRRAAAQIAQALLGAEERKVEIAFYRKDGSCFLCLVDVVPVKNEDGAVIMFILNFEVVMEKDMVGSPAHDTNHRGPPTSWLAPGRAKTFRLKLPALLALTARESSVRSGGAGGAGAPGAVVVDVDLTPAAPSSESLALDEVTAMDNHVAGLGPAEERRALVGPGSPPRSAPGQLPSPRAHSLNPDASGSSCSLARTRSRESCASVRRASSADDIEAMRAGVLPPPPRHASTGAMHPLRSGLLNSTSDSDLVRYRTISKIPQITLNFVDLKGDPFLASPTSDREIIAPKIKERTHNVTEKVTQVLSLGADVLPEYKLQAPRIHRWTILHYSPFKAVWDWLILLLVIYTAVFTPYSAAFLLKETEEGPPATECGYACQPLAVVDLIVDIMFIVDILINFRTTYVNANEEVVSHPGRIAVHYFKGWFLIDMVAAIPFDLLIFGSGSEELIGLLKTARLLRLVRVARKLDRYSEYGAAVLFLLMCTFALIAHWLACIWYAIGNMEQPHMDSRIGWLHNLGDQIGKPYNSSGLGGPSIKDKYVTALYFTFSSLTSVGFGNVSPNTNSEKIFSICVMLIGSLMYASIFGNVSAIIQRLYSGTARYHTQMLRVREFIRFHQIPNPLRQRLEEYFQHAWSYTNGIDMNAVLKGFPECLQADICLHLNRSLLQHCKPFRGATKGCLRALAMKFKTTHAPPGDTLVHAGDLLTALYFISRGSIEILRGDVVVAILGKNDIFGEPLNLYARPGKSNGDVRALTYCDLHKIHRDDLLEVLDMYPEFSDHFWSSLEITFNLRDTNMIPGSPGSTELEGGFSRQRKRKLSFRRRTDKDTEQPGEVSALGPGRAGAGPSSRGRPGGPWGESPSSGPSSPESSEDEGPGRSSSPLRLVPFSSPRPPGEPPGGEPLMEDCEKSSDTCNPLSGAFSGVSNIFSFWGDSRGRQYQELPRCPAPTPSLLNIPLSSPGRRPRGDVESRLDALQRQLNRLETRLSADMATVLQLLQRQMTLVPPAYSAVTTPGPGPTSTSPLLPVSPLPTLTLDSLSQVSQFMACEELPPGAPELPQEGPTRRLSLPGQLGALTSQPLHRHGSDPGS

| Compound | hERG current change (%, negative = inhibition) at 10uM |
| --- | --- |
| Oc1ccccc1C=Nc1ccccc1-c1nc2ccccc2[nH]1 | 5.22% |
| COc1cccc(C(=O)Nc2cccc(-c3nnc(-c4ccccc4)o3)c2)c1 | -4.18% |
| Cc1nc2ccc(NC(=O)Cc3c(F)cccc3Cl)cc2s1 | -3.93% |
| CC1CCN(C(=O)c2nc[nH]c2C(=O)O[C@H](C)c2ccccc2)CC1 | 8.79% |
| CC(C)CC(c1nnnn1C1CCCC1)N1CCN(c2ccccc2F)CC1.Cl (stereo not drawn) | 4.76% |
| O=C(Cn1ncc2c3ccccc3n(Cc3ccccc3)c2c1=O)NCCCN1CCCC1=O | -29.8% |
| COC(=O)c1c(CCl)noc1C(=O)NC(C)C | 10% |
| CC(C)CC(=O)N1CCN(Cc2cccc(F)c2)CC1 | -2.39% |
| O=C(NC1(C(F)(F)F)C(=O)Nc2c1c(=O)[nH]c(=O)n2Cc1ccccc1)c1ccc(Cl)cc1 (stereo not drawn) | 5.24% |
| CCCCCCCC(=O)NC(Oc1ccccc1[N+](=O)[O-])C(Cl)(Cl)Cl (stereo not drawn) | -17.3% |
| CC(C)(C)OC(=O)N1CCC(Cc2cc(-c3ccccc3)no2)(C(=O)O)CC1 | 12.1% |
| CCc1cc2cc3c(cc2nc1SCC(=O)Nc1nccs1)OCO3 | -3.49% |
| O=C1OC(Cc2ccncc2)C(O)=C1C1=NCCCN1 (stereo not drawn) | 20.5% |
| Cc1cccc(OCCC(=O)Nc2ccc(F)c(Cl)c2)c1 | 0.149% |
| O=C(CCN1C(=O)C2C3C=CC(C3)C2C1=O)N1CCN(c2ccc([N+](=O)[O-])cc2)CC1 (stereo not drawn) | -81.2% |
| COc1ccc(-c2csc(-n3ncc(C(=O)O)c3C(F)(F)F)n2)cc1 | 20% |
| CCOC(=O)/C(=N\Nc1cc(Cl)ccc1Cl)N1CC(C)OC(C)C1 (stereo not drawn) | 14.2% |
| Cc1ccc(C(=O)N2CCCC(Nc3cccc(F)c3)C2)cc1N1CCNC1=O (stereo not drawn) | 1.96% |
| COc1ccc(CCC(=O)NC2CCCc3ccccc32)cc1OC (stereo not drawn) | 18.7% |
| COc1ccc(OCC(=O)NCCCNC(=O)COc2ccc(OC)cc2)cc1 | -12.5% |
| O=C(c1noc2c1CCc1ccccc1-2)N1CCCc2ccccc21 | -4.58% |
| CCOc1ccc(NS(=O)(=O)c2ccc(C(=O)NCc3ccncc3)cc2)cc1 | 8.25% |
| COCCn1cnc2c1c(=O)n(CC(=O)Nc1cc(C)on1)c(=O)n2Cc1ccccc1 | -22.2% |
| CCOC(=O)CCCCC(=O)c1[nH]c(=O)[nH]c1CSc1nnc2c3ccccc3n(C(C)C)c2n1 | -1.17% |
